# Laboratory results published in the supplement of paper PMC11417369.
# ± gives the standard deviation of the averaged measurements. The list shows a part of the results.
# Tested on: PfAP2-LT AP2 domain (GST-tagged)
# Assay: gcPBM binding intensity (ln(normalized median fluorescence intensity)); higher = stronger DNA binding
# Summary of the method: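 Plasmodium falciparum DNA-binding domains carrying a GST tag were expressed in E. coli and applied for 1 h, at about 25 μg on average, to an Agilent 4 × 180k array. The array held primer-extended double-stranded 36-bp intergenic genomic probes together with negative controls, and binding took place in 1× PBS with 1% milk, 0.2 mg/ml BSA, 0.5% salmon testes DNA and 0.03% Triton X-100. An Alexa488 anti-GST antibody detected bound protein, and the array was scanned at 488 nm. Binding intensity is taken as the highest Masliner-normalised natural-log median intensity across replicate spots of either probe orientation.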
row,Sequence,gcPBM binding intensity (ln)
1,AATATATTTATATAGTGTACATTTTTTATATATGTA [XGTACX_site8142],8.69 ± 0.35
2,TATTAATTTTTATTATGTACATAAATAATTTATATT [XGTACX_site5456],8.56 ± 0.4
3,CACATACACATACACATACACACGCATAGAAACATA [CACACA_site2136],9.71 ± 0.28
4,TTGTATAAATATGTATGTATATAATATATGTAAAGA [TGCATGCA_negctrl_site93],8.66 ± 0.38
5,AAATCGTGTACATTGACACACATAATTTTTTTTATA [CACACA_site2463],8.78 ± 0.36
6,GGACACCTTCAAAACACACATACAAATAAATAGAAA [CACACA_site3305],8.97 ± 0.54
7,ATATAAATATATATATGTACATAATATATTATGTTT [XGTACX_site2806],8.81 ± 0.48
8,AATTTAACCACTAAAAGTACACACATATATACATAT [XGTACX_site8352],9.15 ± 0.45
9,TCCTTTTTACTACTAGTGCATTATTTACAAGGTCCG [GTGCAC_site9441],8.69 ± 0.52
10,AATGTGTATATATATACACACACATATATATATTTT [CACACA_site8596],9.54 ± 0.18
11,ATATATATAAAATATTATATTAAAAAAAATAAAATA [GTGCAC_negctrl_site87],8.4 ± 0.55
12,TAGTTTTTTATATATTGTACTTAGAATATATTATAT [XGTACX_site3662],8.65 ± 0.47
13,AGGATAATATACAAAAGTACATAAAACTAAAAAAAC [XGTACX_site605],9.09 ± 0.54
14,AAAGAAAGAAAGAATACACACACACCGATATATATA [CACACA_site9246],9.77 ± 0.31
15,AACATATATTTTGAAACACACACATATATAATATAC [CACACA_site8301],9.27 ± 0.3
16,TTTTATATATAATTCACACAAAAAAGATACATAAGA [CACACA_site5332],8.54 ± 0.4
17,ACAACACATATTCATCGTACATGTATTAGGAAGACA [XGTACX_site1859],9.04 ± 0.42
18,ATAAAAATATAATTGAGTACATATGAATAGTCCTAT [XGTACX_site6281],8.65 ± 0.42
19,ATTTTGTTTTTTTTTGCACACCATAAGGAGTGTAGG [CACACA_site1414],8.96 ± 0.34
20,TAAGCAAAAATAATTACACACAAATTTATAAAAAAT [CACACA_site3377],8.96 ± 0.41
21,TATATAAAAATATGTTGTACGCATTTATAAATATAT [XGTACX_site3758],8.68 ± 0.4
22,GGTGTATGTTAAAGGAGTACATATATATATATATAT [XGTACX_site7727],9.85 ± 0.37
23,TATTTTTATTTATAACGTACGAAAAATGTATATAAT [XGTACX_site703],8.54 ± 0.43

row,Sequence,gcPBM binding intensity (ln)
1,CATACACATTTCATATGTACATAGATTGAAGGGAAG [XGTACX_site116],8.93 ± 0.41
2,TAGTATTTATATGTTATATATATAAAATAATACAGT [XGTACX_negctrl_site571],8.86 ± 0.48
3,ATATCTAATAAAAATACACACACATATGATTTGTGA [CACACA_site8558],9.06 ± 0.35
4,TATATAGAATTATATGCATGTTCAAAAAAATACAAC [TGCATGCA_site431],8.72 ± 0.39
5,AATAGTTCTTGAACGTGTACATAAAATATAATTTAC [XGTACX_site11],8.72 ± 0.43
6,TTCTATTTTTTAAAAGTGCATATTATAAATATATAT,8.39 ± 0.54
7,GAAATCTAAATAGAAACACACATATATAAATAAATA [CACACA_site7762],8.83 ± 0.57
8,GAATAATCCAAACACACACACACACCCGAATAAATA [CACACA_site482],10.3 ± 0.45
9,TGTGTATAAATATACACACACATATAAATATTTTAA [CACACA_site7005],9.09 ± 0.35
10,TATTTAAAAAATAATACACACATAATATAACAAAAT [CACACA_site3174],9.06 ± 0.38
11,ACATATAATATAAATTGTACATATAAATATATTATT [XGTACX_site4268],8.71 ± 0.39
12,TTTACAACATCAAAATGTACGCATTATTATTATTAA [XGTACX_site3017],8.48 ± 0.43
13,TGGAGGTCAGTTCACAGTACCCAGGAAATCTGCGGA [XGTACX_site2556],8.53 ± 0.47
14,ATGCATAATATACTCTTACACACCATTTCTATATAC [CACACA_site1461],9.21 ± 0.4
15,TTCACTTTTTTTTTTTTTTTTTTTTTTTTTTTTATT [GTGCAC_negctrl_site350],8.47 ± 0.57
16,TATAACATAGGACACACACACATACATACACAAAAA [CACACA_site5062],9.88 ± 0.41
17,TCATATATTTTATACATACACACATATATATATTTT [CACACA_site3941],9.12 ± 0.48
18,ACGTTATACACAGTACGTACATAACTATCTAAATGT [XGTACX_site5068],8.98 ± 0.29
19,TTTTTTTTTTTTTTTTTTTTTTTTTTGTTCAGGCCT [GTGCAC_negctrl_site143],8.2 ± 0.57
20,ACGTAATAAAATAGTTGTACAACTTTTTATAATATA [XGTACX_site4393],8.67 ± 0.4
21,AAACGATTAATGTGTACACACATAGTTATAAACCTA [CACACA_site2110],9.23 ± 0.45
22,TATATATATATTATATGTACGTATGTATGTATATAT [XGTACX_site6451],8.88 ± 0.3
23,TCATAAATATGAAAAAGTACAAAGGTAGATTTTGAA [XGTACX_site4535],8.71 ± 0.5

row,Sequence,gcPBM binding intensity (ln)
1,ATAAATATCTAGGGTTCACACATTATATATCTGTAT [CACACA_site5702],8.92 ± 0.47
2,CGTGAATATATGATATGTACTTATAAAAATTTGTGC [XGTACX_site5480],8.72 ± 0.4
3,ACAAAGTTATAATTCTTGCACTTTAAGGTTCATTTA,8.62 ± 0.5
4,GGTATACACAAGTATACACACATATATATATATATA [CACACA_site9063],10.16 ± 0.099
5,TTTTCCTCTTAAAATATACACACTGATTTAAGAAAA [CACACA_site3301],8.31 ± 0.33
6,AGTAACAAAAGAAAAAAATATGCAAACATATATATA [XGTACX_negctrl_site468],8.82 ± 0.54
7,TTCATTTTTTGCTTTCAACACACATACAATATATAT [CACACA_site9369],8.96 ± 0.52
8,AGAAATATATATATATATATATATATATATATATAT [TGCATGCA_negctrl_site375],10 ± 0.3
9,TTTTTCTTTTTTTCTTTTTTTATAAAACTTAATTGT [CACACA_negctrl_site384],8.51 ± 0.56
10,AAAAAAAAAAAAAAATATATATATATATACATACAT [CACACA_negctrl_site317],8.89 ± 0.3
11,TATTAATTATATTTATGTACATAATCATATTATTAT [XGTACX_site7938],8.94 ± 0.44
12,TTTATTTATTACTAAAGTACTAAATCATATTATTAT [XGTACX_site2574],8.46 ± 0.47
13,ATGAACAAGTGGCACACACACATTATAACTAATTTA [CACACA_site5731],9.37 ± 0.38
14,AAAATAATATTTCCTTGTACACATATGTATTTGTTC [XGTACX_site4430],9.15 ± 0.48
15,TTCTTTTTTTTTATCACACATATTACAATCTAGTGC [CACACA_site4697],8.97 ± 0.41
16,GTATACATGCAAATTTTTATTTACAACCCCAAAAAG [XGTACX_negctrl_site255],8.91 ± 0.24
17,TTTTCATAATATACATGTACATATATAAATTATTAA [XGTACX_site5206],8.42 ± 0.4
18,TATTATAATATGCCTTGTACATATAACAAATTTATT [XGTACX_site108],8.58 ± 0.45
19,TTTTTTTCACAAAATACACACAATATATTTTATATC [CACACA_site1138],8.78 ± 0.53
20,TTAACATAAATATATACACACCAATGATGGCATTTA [CACACA_site4952],8.74 ± 0.35
21,TATATATAATATATATGTACGTATATATATAATATA [XGTACX_site8383],8.66 ± 0.35
22,GTTTCCTTAATATTCACACACATATATATAATATAT [CACACA_site1856],9.22 ± 0.26
23,ATGTTATAAGATTTATGTACACACATATACACACCT [XGTACX_site1316],9.46 ± 0.29

row,Sequence,gcPBM binding intensity (ln)
1,AATAAAGCAATAAATACACACATATTTATATTTATA [CACACA_site7390],8.98 ± 0.38
2,TTTATTTTCCAAAGGGTGCACATAGTTGAAACGATA,8.62 ± 0.43
3,ATATATAATTTTTACACACGCAATAAATATATATAT [CACACA_site4283],8.91 ± 0.39
4,TTTTGGATTGAGGACCTTTTTATAGAATTATGTTTT [TGCATGCA_negctrl_site544],8.62 ± 0.49
5,AGCAAAATGAAATAAATTGGAAAATATTACTGAACG [CACACA_negctrl_site1433],8.76 ± 0.44
6,GCAAATCTTATATGAAGTACATATCTTATAAATAAA [XGTACX_site6903],8.53 ± 0.45
7,TTTATTATATTTTTTTGTACATATTGATGTATATAA [XGTACX_site6527],8.65 ± 0.4
8,TGAATTTACAAAATCATGCACTTAATTACAGAATAA,8.52 ± 0.43
9,ATAAAAAAAAAAAGAAGTACATGTATTAAAATTTAT [XGTACX_site3927],8.93 ± 0.53
10,AACAAAGGATTTATATATACATACATACATACATAA [GTGCAC_negctrl_site469],8.84 ± 0.41
11,ATTTTGGAAATAATATGTACATATACATAATATATA [XGTACX_site4177],8.58 ± 0.38
12,CGAACACAAACACAAACACACATCATATATATATAT [CACACA_site4857],9.72 ± 0.24
13,AATATACAAAAAAAAAAAAAAAAAAAAAAGATGGAA [TGCATGCA_negctrl_site550],8.53 ± 0.71
14,ATCTTTTCATATTGCTGTACAAATTATTTTCATTCG [XGTACX_site492],8.99 ± 0.42
15,TTAATATTAATTATATGTACATATAATATATATATA [XGTACX_site1757],8.49 ± 0.22
16,TGTATAAAATTCCATTGTACATATTATTTTACGACA [XGTACX_site7764],8.66 ± 0.47
17,GAGAAATGGAGACACACACACATATTATATATATAT [CACACA_site1532],9.85 ± 0.15
18,ATGTTAAACAAATCTATACACACGTATATGACAAAA [CACACA_site1783],9.1 ± 0.26
19,AAAAGTCTTCAAATTTGTACATATATATATATATAT [XGTACX_site3404],9.47 ± 0.3
20,GGTACATACAGACACACACACAAAAAAAAAAAAATA [CACACA_site6844],9.81 ± 0.64
